Test results taken from the supplement of paper PMC3334620.
Whole data set: some 33,000 sequences, median “E-score (-0.5 to 0.5)” near -0.013, cut for the highest 2% near 0.3. This is one part of the list.

target: T1, Msn1 (UniProt P22148); experiment: PBM E-score (8-mer binding enrichment) (E-score (-0.5 to 0.5)); higher = stronger / more preferred TF binding; most listed sequences are background and not binding sites; conditions: protein concentration: 200 nM; construct: GST-full length
T1 sequence: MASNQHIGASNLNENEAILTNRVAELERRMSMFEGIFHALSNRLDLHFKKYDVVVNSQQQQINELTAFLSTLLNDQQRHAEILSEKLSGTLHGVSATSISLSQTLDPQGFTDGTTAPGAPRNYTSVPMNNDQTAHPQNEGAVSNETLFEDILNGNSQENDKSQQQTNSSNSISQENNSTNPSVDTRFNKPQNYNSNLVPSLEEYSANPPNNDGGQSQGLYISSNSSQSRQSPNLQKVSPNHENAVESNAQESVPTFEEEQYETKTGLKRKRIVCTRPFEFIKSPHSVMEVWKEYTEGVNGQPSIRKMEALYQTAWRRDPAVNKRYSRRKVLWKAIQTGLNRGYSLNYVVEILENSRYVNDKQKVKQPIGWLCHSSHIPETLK
Summary of the method: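 Yeast transcription factors, full-length or as DNA-binding domains, were expressed with a GST tag using PURExpress in vitro transcription/translation. At about 100-200 nM they were applied to universal all-10-mer Agilent arrays, double-stranded by primer extension on fresh or once-stripped slides. Fluorescent anti-GST detected bound protein, and masliner normalised the scans. E-scores for ungapped eight-base words, pooled with reverse complements, came from the Universal PBM Analysis Suite.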

Row | Sequence | PBM E-score
1 | CTAAAGGC | -0.116
2 | GGGCATAC | -0.178
3 | CGTTTTTA | 0.248
4 | ATTCAGAC | 0.257
5 | CCTAGTGA | -0.172
6 | CTCTGTCA | -0.0435
7 | ACTGGTAT | -0.0668
8 | ACTCGACA | 0.164
9 | CTTTATAA | 0.177
10 | CTACGATC | 0.0145
11 | ACAATTGC | 0.191
12 | CGGCGTAG | -0.209
13 | ACATTTAC | 0.333
14 | ACCGGGTC | -0.0182
15 | CGCTACGC | -0.267
16 | ACGCTCAT | -0.0301
17 | ATTTCGGG | 0.0409
18 | AAAGGGAC | 0.155
19 | GGTCTGCA | -0.00247
20 | GTTGAACA | -0.0283
21 | GGTCCCCA | -0.264
22 | TAAGAAAA | 0.00824
23 | CGTTCCAA | -0.0264
24 | CCACAAAC | 0.223
25 | GCCCGTAC | -0.155

Row | Sequence | PBM E-score
26 | AGCCCTCA | -0.299
27 | CTCAAAAA | 0.0872
28 | AAACTAGG | 0.0937
29 | TTCGGCAA | 0.0801
30 | CAGATGCG | -0.0563
31 | GTTTCATA | -0.107
32 | CGCAACGA | -0.0698
33 | ATTTCAGA | 0.191
34 | AACTTCGG | 0.139
35 | TCGGCGCA | 0.0772
36 | GCAGCTGC | -0.0583
37 | CTAGTGTA | 0.0569
38 | AAAAACCC | -0.105
39 | GATGCTCC | -0.183
40 | CCTAGAGA | -0.119
41 | CCTACGAG | -0.121
42 | AGATGCTG | -0.0583
43 | GAAAGGTA | 0.101
44 | GCGTGCCC | -0.248
45 | CTATCAAA | 0.0766
46 | TCAAGCCA | -0.0791
47 | CTCCGGGC | -0.104
48 | CCCCGAGC | -0.133
49 | TCTTGTAA | 0.134
50 | CACCTGGA | -0.0458

Row | Sequence | PBM E-score
51 | CTCGGTTA | -0.0881
52 | ACGGAAGG | -0.0988
53 | CCGATTAG | 0.0933
54 | AACATAAC | 0.0281
55 | CCATTTAG | -0.0921
56 | ATCCTGGG | -0.188
57 | CCACCCTA | 9e-05
58 | GGGCGCCA | -0.16
59 | GACTCGGA | 0.0141
60 | CCATTTCG | -0.147
61 | CTGTCCAA | 0.287
62 | GGTCTGAC | 0.0129
63 | CGAAAGTA | 0.117
64 | CTTACTTC | 0.0413
65 | AGCTGTAA | -0.0638
66 | CCGGTGCA | -0.198
67 | TATGGTCA | 0.118
68 | CCGGCAGG | -0.176
69 | CTCATATC | -0.196
70 | CCTTTGAG | -0.055
71 | ATTCACGC | -0.149
72 | ATGATGCC | -0.0448
73 | AACCGGGC | -0.00703
74 | GAAGCCCA | -0.265
75 | GATGTACC | 0.0889

Row | Sequence | PBM E-score
76 | GACTACGA | -0.117
77 | AGTTATGG | 0.169
78 | CCCTTCAG | -0.0875
79 | CACCGATA | 0.0165
80 | ATCTCAGA | 0.0316
81 | CACCTAAG | -0.0954
82 | TATAAGGA | 0.17
83 | TAAGTAGA | 0.0488
84 | GATAGACC | -0.0609
85 | CACCAGGC | -0.207
86 | ATAAAAAC | 0.183
87 | CAGTTTGC | 0.0174
88 | CATAAAGG | 0.0405
89 | CCTCCTAA | -0.0921
90 | CAGTCTCC | -0.122
91 | ATTGAGCC | 0.0496
92 | AACGCCTT | -0.0776
93 | CAGCTCAA | -0.0995
94 | ATTTGGCC | 0.0647
95 | CGGCGTTA | -0.0136
96 | ATCATAAT | 0.144
97 | CTCGGTTC | -0.122
98 | AAGTATTC | 0.004
99 | AGAGTGCT | -0.00552
100 | TACGTAGA | -0.0145

Row | Sequence | PBM E-score
101 | ACAGCTCA | -0.0401
102 | CATTCCGC | 0.0152
103 | ATAGACAG | 0.202
104 | GGATATAC | 0.0454
105 | AAATCACC | 0.137
106 | AATCCGCT | -0.127
107 | GCACAGGA | 0.0138
108 | GTCAAAGA | 0.00566
109 | AACTTGAA | 0.101
110 | CTTTCTGA | 0.158
111 | CGGCGTGA | -0.154
112 | CCTACCAA | 0.133
113 | AGGGTGCA | -0.14
114 | CCCTGCGA | -0.1
115 | CGTCGGCA | -0.0575
116 | CGTCGCAA | 0.0166
117 | GAGAGTAA | 0.0458
118 | ATAGGTTG | -0.0907
119 | ACCACGCT | -0.091
120 | TCACATAA | -0.0221
121 | ACAATGTA | 0.156
122 | GCCCGAGC | -0.146
123 | ATCGTTAC | -0.137
124 | ATAAAATC | 0.0924
125 | ACGAGGTG | -0.0331

Row | Sequence | PBM E-score
126 | AGTCACTA | 0.0276
127 | ATATGCTG | -0.0228
128 | CAAGATGC | 0.208
129 | GCAATACA | 0.0699
130 | CCCCCATA | -0.4
131 | GCCCGTTA | -0.266
132 | CAAGTATC | -0.00272
133 | CATCAGGC | -0.0359
134 | GCTTCGTA | -0.0994
135 | ACATCGCA | 0.00155
136 | ACGGGCGC | -0.00574
137 | AAGCGCTA | -0.0275
138 | AATTAACT | -0.0545
139 | AAGCGTAT | -0.121
140 | CTCTACGC | -0.205
141 | CAGCCTAC | -0.125
142 | CCTCGCCG | -0.274
143 | CGCGGGCA | 0.175
144 | CAAACTGC | 0.166
145 | AGCACGTA | -0.269
146 | GCCCCTAA | -0.0108
147 | CAGTGTGG | -0.254
148 | ACGCGTAC | 0.0517
149 | GATACGCC | -0.2
150 | AAAGTCAG | 0.0767

Row | Sequence | PBM E-score
151 | CGCATTAG | -0.0867
152 | CTTACGAC | 0.0141
153 | CGTGCGAG | 0.00386
154 | AAAACAAG | -0.0297
155 | ACTGGACC | -0.137
156 | ATCATGAA | 0.121
157 | GAATGTGC | -0.148
158 | AAGACATG | 0.337
159 | CAGCGCAA | -0.0667
160 | GGCCCAAA | -0.0383
161 | CGGGCCAG | -0.264
162 | CTTGGGGC | -0.221
163 | CGTAAGCA | -0.216
164 | AGATAAAC | 0.158
165 | CAGTCCAG | -0.141
166 | AGCCTCTC | -0.235
167 | CAGCAGCG | -0.00664
168 | CCTGCGAC | -0.119
169 | CCACACCG | -0.119
170 | AATGCAGT | -0.00858
171 | CCATGTGC | -0.0705
172 | AGCCAGGG | -0.297
